# Residue numbers refer to the chain shown, from its start. The list shows a part of the results.
# T1: RBFOX1 RRM (Homo sapiens, UniProt Q9NWB1 109-208)
# T1 sequence: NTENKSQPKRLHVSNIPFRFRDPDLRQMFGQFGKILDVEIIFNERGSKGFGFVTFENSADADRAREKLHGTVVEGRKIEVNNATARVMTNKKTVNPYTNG
# B1: CUAGCGA (DNA:RNA)
# RNA: GGGAGACCGGAAUUCAGAUUGUCCCUAGCGAUUAAAUCCCGUCGUAGCCACCA
# DNA 1: CAATCTGAATTCCGGTCTCCC
# DNA 2: TGGTGGCTACGACGGGATT
# B2: AGUGUAG (DNA:RNA)
# RNA: B1 RNA with C25A, U26G, A27U, C29U, G30A, A31G
# DNA 1: CAATCTGAATTCCGGTCTCCC
# DNA 2: TGGTGGCTACGACGGGATT
# B3: UUUCUAA (DNA:RNA)
# RNA: B1 RNA with C25U, A27U, G28C, C29U, G30A
# DNA 1: CAATCTGAATTCCGGTCTCCC
# DNA 2: TGGTGGCTACGACGGGATT
# B4: GCACAAG (DNA:RNA)
# RNA: B1 RNA with C25G, U26C, G28C, C29A, G30A, A31G
# DNA 1: CAATCTGAATTCCGGTCTCCC
# DNA 2: TGGTGGCTACGACGGGATT
# B5: AAGUGAU (DNA:RNA)
# RNA: GGGAGACCGGAAUUCAGAUUGUCCAAGUGAUUUAAAUCCCGUCGUAGCCACCA
# DNA 1: CAATCTGAATTCCGGTCTCCC
# DNA 2: TGGTGGCTACGACGGGATT
# B6: UACCAGG (DNA:RNA)
# RNA: B5 RNA with A25U, G27C, U28C, G29A, A30G, U31G
# DNA 1: CAATCTGAATTCCGGTCTCCC
# DNA 2: TGGTGGCTACGACGGGATT
# B7: GCGCCCG (DNA:RNA)
# RNA: B5 RNA with A25G, A26C, U28C, G29C, A30C, U31G
# DNA 1: CAATCTGAATTCCGGTCTCCC
# DNA 2: TGGTGGCTACGACGGGATT
# B8: GCAAUGU (DNA:RNA)
# RNA: B1 RNA with C25G, U26C, G28A, C29U, A31U
# DNA 1: CAATCTGAATTCCGGTCTCCC
# DNA 2: TGGTGGCTACGACGGGATT
# B9: GACUCAA (DNA:RNA)
# RNA: B5 RNA with A25G, G27C, G29C, U31A
# DNA 1: CAATCTGAATTCCGGTCTCCC
# DNA 2: TGGTGGCTACGACGGGATT
# B10: CGUUCUU (DNA:RNA)
# RNA: B5 RNA with A25C, A26G, G27U, G29C, A30U
# DNA 1: CAATCTGAATTCCGGTCTCCC
# DNA 2: TGGTGGCTACGACGGGATT
# B11: GUAAUUC (DNA:RNA)
# RNA: B1 RNA with C25G, G28A, C29U, G30U, A31C
# DNA 1: CAATCTGAATTCCGGTCTCCC
# DNA 2: TGGTGGCTACGACGGGATT
# B12: GACAAUA (DNA:RNA)
# RNA: B5 RNA with A25G, G27C, U28A, G29A, A30U, U31A
# DNA 1: CAATCTGAATTCCGGTCTCCC
# DNA 2: TGGTGGCTACGACGGGATT
# B13: AUCGUUA (DNA:RNA)
# RNA: B1 RNA with C25A, A27C, C29U, G30U
# DNA 1: CAATCTGAATTCCGGTCTCCC
# DNA 2: TGGTGGCTACGACGGGATT
# B14: ACGCCGU (DNA:RNA)
# RNA: B5 RNA with A26C, U28C, G29C, A30G
# DNA 1: CAATCTGAATTCCGGTCTCCC
# DNA 2: TGGTGGCTACGACGGGATT
# B15: GGUUACC (DNA:RNA)
# RNA: B5 RNA with A25G, A26G, G27U, G29A, A30C, U31C
# DNA 1: CAATCTGAATTCCGGTCTCCC
# DNA 2: TGGTGGCTACGACGGGATT
# B16: AGACGGU (DNA:RNA)
# RNA: B5 RNA with A26G, G27A, U28C, A30G
# DNA 1: CAATCTGAATTCCGGTCTCCC
# DNA 2: TGGTGGCTACGACGGGATT
# B17: UGUGAGC (DNA:RNA)
# RNA: B1 RNA with C25U, U26G, A27U, C29A, A31C
# DNA 1: CAATCTGAATTCCGGTCTCCC
# DNA 2: TGGTGGCTACGACGGGATT
# B18: UUACUUC (DNA:RNA)
# RNA: B1 RNA with C25U, G28C, C29U, G30U, A31C
# DNA 1: CAATCTGAATTCCGGTCTCCC
# DNA 2: TGGTGGCTACGACGGGATT
# B19: CGUUACC (DNA:RNA)
# RNA: B5 RNA with A25C, A26G, G27U, G29A, A30C, U31C
# DNA 1: CAATCTGAATTCCGGTCTCCC
# DNA 2: TGGTGGCTACGACGGGATT
# B20: GGCCGCA (DNA:RNA)
# RNA: B5 RNA with A25G, A26G, G27C, U28C, A30C, U31A
# DNA 1: CAATCTGAATTCCGGTCTCCC
# DNA 2: TGGTGGCTACGACGGGATT
# Target: T1, RBFOX1 RRM
# Assay: EMSA; HiTS-Eq, 1 nM pool, 10 min; buffer printed only for the single-RNA assays: 10 mM Tris pH 7.5, 150 mM NaCl, 3.4 mM EDTA, 0.001% NP-40, 30 C
# Details: tags: His6 N-terminal (pET28a); label: 5' 32P
# In short: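 Purified RbFox RRM, wild type or mutant, was incubated for 10 min in 50 µL with 1 nM of a 5′-radiolabelled RNA pool carrying 7 randomized nucleotides, whose flanks were annealed to DNA oligonucleotides, over a series of increasing protein concentrations. Unbound RNA was resolved on 8% native PAGE, cut out, reverse-transcribed, barcoded by PCR and sequenced on an Illumina HiSeq 2500. Relative association constants were derived from changes in read counts for each RNA species versus the control reaction and normalised to the cognate motif.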
row,Binder,binding signal
1,B1,0.00779 KA relative to UGCAUGU
2,B2,0.0123 KA relative to UGCAUGU
3,B3,0.00383 KA relative to UGCAUGU
4,B4,0.00766 KA relative to UGCAUGU
5,B5,0.0054 KA relative to UGCAUGU
6,B6,0.00886 KA relative to UGCAUGU
7,B7,0.0159 KA relative to UGCAUGU
8,B8,0.01 KA relative to UGCAUGU
9,B9,0.00562 KA relative to UGCAUGU
10,B10,0.0146 KA relative to UGCAUGU
11,B11,0.0044 KA relative to UGCAUGU
12,B12,0.00231 KA relative to UGCAUGU
13,B13,0.00325 KA relative to UGCAUGU
14,B14,0.00555 KA relative to UGCAUGU
15,B15,0.0089 KA relative to UGCAUGU
16,B16,0.0131 KA relative to UGCAUGU
17,B17,0.0247 KA relative to UGCAUGU
18,B18,0.0109 KA relative to UGCAUGU
19,B19,0.00632 KA relative to UGCAUGU
20,B20,0.0132 KA relative to UGCAUGU

# Reference: publication PMC9911399, “Two distinct binding modes provide the RNA-binding protein RbFox with extraordinary sequence specificity”
